Molecules are shown by their SMILES.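 Step 1: Grow cells in 96-well plates. Step 2: Expose to compound for 48 hours at 5 concentrations. Step 3: Interpolate endpoints linearly; if unreached, use highest concentration. Here, GI50 denotes the concentration required for 50% inhibition of growth. Definition used: TGI = concentration required for complete inhibition of growth.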

In the test the test system is NCI-H322M lung. Description: growth of human tumour cells (NCI), 48 h.
For the compound `CNS(=O)(=O)NNS(=O)(=O)c1cccc([N+](=O)[O-])c1`, the TGI was more than 100 µM.
`COC12OCCN(CCO)C1=CC(=O)C1(C)N=NC(C)C12` (stereo unspecified) came in with a TGI of more than 100 µM.
For `Cn1c(=O)c2ccccc2c2ccccc21`, the TGI was more than 100 µM.
Compound `CCOC(=O)Cn1c(=O)[nH]c(=O)c2c1ncn2Cc1ccccc1` came in with a TGI of more than 100 µM.
Compound `NC(=O)C(N)CC12CC3CC(CC(C3)C1)C2` (stereo unspecified) came in with a TGI of more than 100 µM.
Consider `N[C@H]1C[C@@H]1c1ccc(-c2cccc(O)c2)cc1`, for which the GI50 was 40.5 µM and the TGI is more than 100 µM.
Take `COc1ccc(C2C(C#N)=C(O)NC(O)=C2C#N)cc1OC`: the TGI is more than 100 µM.
Regarding `C=C1CCC(OC(C)=O)C2(C)C(OC(C)=O)CC3OC3(C)C2C(OC(C)=O)C2C(C)C(=O)OC2C1Cl` (stereo unspecified), the TGI was more than 100 µM.
Take `O=C(N=Nc1c(O)[nH]c2ccccc12)C(O)(c1ccccc1)c1ccccc1`: the TGI worked out at 39.3 µM.
For `c1ccc(Cc2cc(-c3ccccc3)n[nH]2)cc1`, the TGI came out at 33.1 µM.
`CN(C)c1nc(N)nc(CCl)n1`: the TGI amounted to 77.8 µM.
As for `c1cc2ccc3cc4ncccc4c4ccc(c1)c2c34`, the TGI was more than 100 µM.
On to `CCCCCCN1C(=O)CC(=O)N(CCCCCC)S1(=O)=O`, for which the TGI is more than 100 µM.
As to `O=C1Nc2ccccc2C12CCCC2`, the TGI is more than 100 µM.
Regarding `Cn1ccnc1Sc1ccc(/C=N\NC(=O)c2cccc(F)c2)cc1[N+](=O)[O-]`, the TGI is more than 100 µM.
Same read-out and setting: the same measure for `O=[N+]([O-])/C(C(Cl)=C(Cl)Cl)=C1\NCCS1`: more than 100 µM; for `Cc1cc2c(c3c1c1ccccc1n3C)C(=O)c1ccccc1C2=O`: more than 100 µM.
In the case of `CC(=O)OCC1OC(n2c3c(cc(C#N)c2=O)CCCCCC3)C(OC(C)=O)C(OC(C)=O)C1OC(C)=O` (stereo unspecified), the TGI was more than 100 µM.
On the same count and under the same terms, the same measure for `CC(C)(Oc1ccc(Cl)cc1)C(=O)N(C(=O)N1CCN(c2ccccc2)CC1)c1ccccc1`: more than 100 µM; for `COc1ccc(C(CC(C)=O)c2c(O)c3ccccc3oc2=O)cc1OC` (stereo unspecified): more than 100 µM.
On to `Oc1c(I)cc(I)cc1CNCCN(Cc1ccccn1)Cc1ccccn1`, for which the GI50 is 0.919 µM and the TGI was 2.56 µM.
Turning to `CC1=CC(O)(c2ccccc2)C(N2CCOCC2)N1O` (stereo unspecified), the TGI was more than 100 µM.
Take `CCc1nnc(CC)n1N1C(=O)CCC1=O`: the TGI was more than 100 µM.
`COc1ccc(C(=O)O)c(Br)c1OCc1ccccc1` displayed a TGI of more than 100 µM.

The record behind these values is PubChem BioAssay (NCI).
